# Measurements published in the supplement of paper PMC8728848.
# The list shows a part of the results.
# B1: Gal-9-hFc (Mus musculus), O08573-2 (protein)
# chain: MALFSAQSPYINPIIPFTGPIQGGLQEGLQVTLQGTTKSFAQRFVVNFQNSFNGNDIAFHFNPRFEEGGYVVCNTKQNGQWGPEERKMQMPFQKGMPFELCFLVQRSEFKVMVNKKFFVQYQHRVPYHLVDTIAVSGCLKLSFITFQTQNFRPAHQAPMAQTTIHMVHSTPGQMFSTPGIPPVVYPTPAYTIPFYTPIPNGLYPSKSIMISGNVLPDATRFHINLRCGGDIAFHLNPRFNENAVVRNTQINNSWGQEERSLLGRMPFSRGQSFSVWIICEGHCFKVAVNGQHMCEYYHRLKNLQDINTLEVAGDIQLTHVQT
# How the values were obtained:
# Assay in all cases: glycan array binding signal (z-score within array); higher = stronger binding
# Conditions in all cases: glycan notation: IUPAC condensed, linker removed
# [1] = target: Gal(b1-3)GlcNAc(b1-2)Man(a1-3)[Gal(b1-3)GlcNAc(b1-2)Man(a1-6)]Man(b1-4)GlcNAc(b1-4)GlcNAc
# Procedure, shortened: (§1)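 The Consortium for Functional Glycomics database supplied 3228 glycan arrays, of which those lacking an available protein sequence were dropped. The binding signal, a within-array Z-score, was averaged across arrays of the same protein sequence and across linkers. Negative scores can be read as non-binding.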
# [2] = target: Gal(b1-3)GlcNAc(b1-2)Man(a1-3)[Gal(b1-3)GlcNAc(b1-2)Man(a1-6)]Man(b1-4)GlcNAc(b1-4)[Fuc(a1-6)]GlcNAc
# Procedure, shortened: as §1
# [3] = target: Gal(b1-3)GlcNAc(b1-2)Man(a1-3)[GlcNAc(b1-4)][Gal(b1-3)GlcNAc(b1-2)Man(a1-6)]Man(b1-4)GlcNAc(b1-4)GlcNAc
# Procedure, shortened: as §1
# [4] = target: Gal(b1-3)GlcNAc(b1-2)[Gal(b1-3)GlcNAc(b1-6)]Man(a1-6)[Gal(b1-3)GlcNAc(b1-2)Man(a1-3)]Man(b1-4)GlcNAc(b1-4)GlcNAc
# Procedure, shortened: as §1
# [5] = target: Gal(b1-3)GlcNAc(b1-3)Gal(b1-3)GlcNAc
# Procedure, shortened: as §1
# [6] = target: Gal(b1-3)GlcNAc(b1-3)Gal(b1-4)Glc
# Procedure, shortened: as §1
# [7] = target: Gal(b1-3)GlcNAc(b1-3)Gal(b1-4)GlcNAc
# Procedure, shortened: as §1
# [8] = target: Gal(b1-3)GlcNAc(b1-3)Gal(b1-4)GlcNAc(b1-2)Man(a1-3)[Gal(b1-3)GlcNAc(b1-3)Gal(b1-4)GlcNAc(b1-2)Man(a1-6)]Man(b1-4)GlcNAc(b1-4)GlcNAc
# Procedure, shortened: as §1
# [9] = target: Gal(b1-3)GlcNAc(b1-3)Gal(b1-4)GlcNAc(b1-2)[Gal(b1-3)GlcNAc(b1-3)Gal(b1-4)GlcNAc(b1-6)]Man(a1-6)[Gal(b1-3)GlcNAc(b1-3)Gal(b1-4)GlcNAc(b1-2)Man(a1-3)]Man(b1-4)GlcNAc(b1-4)[Fuc(a1-6)]GlcNAc
# Procedure, shortened: as §1
# [10] = target: Gal(b1-3)GlcNAc(b1-3)Gal(b1-4)GlcNAc(b1-3)Gal(b1-4)GlcNAc(b1-2)[Gal(b1-3)GlcNAc(b1-3)Gal(b1-4)GlcNAc(b1-3)Gal(b1-4)GlcNAc(b1-6)]Man(a1-6)[Gal(b1-3)GlcNAc(b1-3)Gal(b1-4)GlcNAc(b1-3)Gal(b1-4)GlcNAc(b1-2)Man(a1-3)]Man(b1-4)GlcNAc(b1-4)[Fuc(a1-6)]GlcNAc
# Procedure, shortened: as §1
# [11] = target: Gal(b1-3)GlcNAc(b1-3)Gal(b1-4)GlcNAc(b1-6)[Gal(b1-3)GlcNAc(b1-3)]Gal(b1-4)Glc
# Procedure, shortened: as §1
# [12] = target: Gal(b1-3)GlcNAc(b1-3)Gal(b1-4)[Fuc(a1-3)]GlcNAc
# Procedure, shortened: as §1
# [13] = target: Gal(b1-3)GlcNAc(b1-3)Gal(b1-4)[Fuc(a1-3)]GlcNAc(b1-6)[Gal(b1-3)GlcNAc(b1-3)]Gal(b1-4)Glc
# Procedure, shortened: as §1
# [14] = target: Gal(b1-3)GlcNAc(b1-3)GalNAc
# Procedure, shortened: as §1
# [15] = target: Gal(b1-3)GlcNAc(b1-6)Gal(b1-4)GlcNAc
# Procedure, shortened: as §1
# [16] = target: Gal(b1-3)GlcNAc(b1-6)GalNAc
# Procedure, shortened: as §1
# [17] = target: Gal(b1-3)GlcNAc(b1-6)[Gal(b1-3)]GalNAc
# Procedure, shortened: as §1
# Gal(b1-3)GlcNAc6S = target: Gal(b1-3)GlcNAc6S
# Procedure, shortened: as §1
# [18] = target: Gal(b1-3)[Fuc(a1-4)]GlcNAc
# Procedure, shortened: as §1
# [19] = target: Gal(b1-3)[Fuc(a1-4)]GlcNAc(b1-2)Man
# Procedure, shortened: as §1
# [20] = target: Gal(b1-3)[Fuc(a1-4)]GlcNAc(b1-2)Man(a1-3)[Gal(b1-3)[Fuc(a1-4)]GlcNAc(b1-2)Man(a1-6)]Man(b1-4)GlcNAc(b1-4)[Fuc(a1-6)]GlcNAc
# Procedure, shortened: as §1
# [21] = target: Gal(b1-3)[Fuc(a1-4)]GlcNAc(b1-3)Gal(b1-3)[Fuc(a1-4)]GlcNAc
# Procedure, shortened: as §1
# [22] = target: Gal(b1-3)[Fuc(a1-4)]GlcNAc(b1-3)Gal(b1-4)[Fuc(a1-3)]GlcNAc
# Procedure, shortened: as §1
# [23] = target: Gal(b1-3)[Fuc(a1-4)]GlcNAc(b1-6)GalNAc
# Procedure, shortened: as §1
# [24] = target: Gal(b1-3)[GlcNAc(b1-6)]GalNAc
# Procedure, shortened: as §1
# [25] = target: Gal(b1-3)[Neu5Ac(a2-6)]GalNAc
# Procedure, shortened: as §1
# [26] = target: Gal(b1-3)[Neu5Ac(a2-6)]GlcNAc(b1-4)Gal(b1-4)Glc
# Procedure, shortened: as §1
# [27] = target: Gal(b1-3)[Neu5Ac(b2-6)]GalNAc
# Procedure, shortened: as §1
# Gal(b1-4)Gal = target: Gal(b1-4)Gal
# Procedure, shortened: as §1
# [28] = target: Gal(b1-4)GalNAc(a1-3)[Fuc(a1-2)]Gal(b1-4)GlcNAc
# Procedure, shortened: as §1
# [29] = target: Gal(b1-4)GalNAc(b1-3)[Fuc(a1-2)]Gal(b1-4)GlcNAc
# Procedure, shortened: as §1
# Gal(b1-4)Glc = target: Gal(b1-4)Glc
# Procedure, shortened: as §1
# Gal(b1-4)Glc6S = target: Gal(b1-4)Glc6S
# Procedure, shortened: as §1
# Gal(b1-4)GlcNAc = target: Gal(b1-4)GlcNAc
# Procedure, shortened: as §1
# [30] = target: Gal(b1-4)GlcNAc(a1-6)Gal(b1-4)GlcNAc
# Procedure, shortened: as §1
# Gal(b1-4)GlcNAc(b1-2)Man = target: Gal(b1-4)GlcNAc(b1-2)Man
# Procedure, shortened: as §1
# [31] = target: Gal(b1-4)GlcNAc(b1-2)Man(a1-3)Man(b1-4)GlcNAc(b1-4)GlcNAc
# Procedure, shortened: as §1
binder,measurement,setting,value
B1,glycan array binding signal (z-score),[1],-0.022
same,glycan array binding signal (z-score),[2],-0.351
same,glycan array binding signal (z-score),[3],0.027
same,glycan array binding signal (z-score),[4],-0.333
same,glycan array binding signal (z-score),[5],0.085
same,glycan array binding signal (z-score),[6],-0.443
same,glycan array binding signal (z-score),[7],-0.359
same,glycan array binding signal (z-score),[8],-0.293
same,glycan array binding signal (z-score),[9],1.8
same,glycan array binding signal (z-score),[10],1.48
same,glycan array binding signal (z-score),[11],-0.448
same,glycan array binding signal (z-score),[12],-0.461
same,glycan array binding signal (z-score),[13],-0.599
same,glycan array binding signal (z-score),[14],-0.341
same,glycan array binding signal (z-score),[15],-0.362
same,glycan array binding signal (z-score),[16],-0.396
same,glycan array binding signal (z-score),[17],-0.142
same,glycan array binding signal (z-score),Gal(b1-3)GlcNAc6S,-0.189
same,glycan array binding signal (z-score),[18],-0.32
same,glycan array binding signal (z-score),[19],0.508
same,glycan array binding signal (z-score),[20],0.06
same,glycan array binding signal (z-score),[21],-0.533
same,glycan array binding signal (z-score),[22],-0.478
same,glycan array binding signal (z-score),[23],-0.078
same,glycan array binding signal (z-score),[24],-0.035
same,glycan array binding signal (z-score),[25],0.317
same,glycan array binding signal (z-score),[26],-0.501
same,glycan array binding signal (z-score),[27],-0.454
same,glycan array binding signal (z-score),Gal(b1-4)Gal,0.307
same,glycan array binding signal (z-score),[28],-0.493
same,glycan array binding signal (z-score),[29],-0.625
same,glycan array binding signal (z-score),Gal(b1-4)Glc,0.025
same,glycan array binding signal (z-score),Gal(b1-4)Glc6S,0.697
same,glycan array binding signal (z-score),Gal(b1-4)GlcNAc,-0.167
same,glycan array binding signal (z-score),[30],-0.601
same,glycan array binding signal (z-score),Gal(b1-4)GlcNAc(b1-2)Man,0.241
same,glycan array binding signal (z-score),[31],-0.294
